PubChem BioAssay AID624296 (National Center for Advancing Translational Sciences (NCATS), 2012)
The whole screen tested about 350,000 compounds, of which about 9,900 (2.8%) were called active. Inconclusive results, whose numbers are uncertain, are shown with a selection of clear calls. Calls come from the whole dose curve; as a rule, active = well fitted activation curve with a large enough effect; inconclusive = small, poorly fitted or top-dose-only effect; inactive = no such curve, though single readings can be large or run the other way. Potencies of inconclusive entries are left out as doubtful fits.

Assay: A quantitative high throughput screen for small molecules that induce DNA re-replication in MCF 10a normal breast cells. For activity, positive = re-replication: % of control where 0% means no effect. Note: nearly all actives have a fitted effect of over 50% in size.
Details: MCF 10A DNA re-replication, Hoechst nuclear intensity, 48 h; activity, positive = re-replication: at 46.1 µM (top of the series)
Potency is the fitted concentration of half-maximal effect; tags give direction and shape of the fitted curve.

| Compound | Potency | activity, positive = re-replication |
| --- | --- | --- |
| O=C(c1ccco1)N1CCN(C(=S)Nc2ccc(Br)cc2Cl)CC1 | inconclusive [activator, single point] | – |
| CCN1CCN(CCNC(=O)c2ccc(/C=C3/Sc4ccccc4N(Cc4ccccc4C)C3=O)cc2)CC1 | active: 18.4 µM | – |
| CCn1nc(C(=O)Nc2ccccc2N2CCCC2)c2ccccc2c1=O | inconclusive [activator, partial curve] | – |
| CCC(C)c1ccc(NC(=S)Nc2ccc(OC)c(OC)c2)cc1 (stereo not given) | inconclusive [activator, single point] | – |
| Cc1cc(Cl)nc(Cl)c1C(=O)NC(=O)NCCC(C)C | inconclusive [activator, single point] | – |
| COc1cccc(/C=N/NC(=O)c2ccccc2)c1OS(=O)(=O)c1ccccc1 | inconclusive [activator, partial curve, poor fit] | – |
| COc1ccc(S(=O)(=O)Nc2ccc(Nc3ccccc3)cc2)cc1 | inactive | – |
| O=S(=O)(Nc1ccc(Cl)cc1)c1cccc2nsnc12 | inconclusive [activator, full curve, poor fit] | – |
| COc1ccc(S(=O)(=O)N2CCC(C(=O)NC(c3nc4ccccc4[nH]3)C(C)C)CC2)cc1 (stereo not given) | inconclusive [activator, single point] | – |
| O=C(N/N=C/c1cc([N+](=O)[O-])ccc1O)c1ccc(COc2ccc3c(c2)CCC3)o1 | inconclusive [activator, partial curve, poor fit] | – |
| O=C(Nc1cc(S(=O)(=O)N2CCCCC2)ccc1Cl)c1ccccc1NS(=O)(=O)c1ccc(F)cc1 | inconclusive [activator, full curve] | – |
| Cc1cccc(C(=O)N2CCC(=O)N(C(COCc3cccc(C(F)(F)F)c3)Cc3ccccc3)CC2)c1 (stereo not given) | inconclusive [activator, partial curve, poor fit] | – |
| CCOc1cc(C(=O)N2CCN=C2SC)cc(OCC)c1OCC | inconclusive [activator, single point] | – |
| CCNc1sc(C(=O)c2cccs2)c(N)c1-c1nc2ccccc2s1 | inconclusive [activator, partial curve, poor fit] | – |
| O=C(Nc1nc2ccsc2c(=O)s1)c1ccc(F)cc1Cl | inconclusive [activator, single point] | – |
| CC(=O)c1cccc(NC(=O)C2C3C=CC(C3=C(c3ccccc3)c3ccccc3)C2C(=O)O)c1 (stereo not given) | inconclusive [activator, partial curve, poor fit] | – |
| Cc1ccc(C(=O)N/C(=C\c2ccc(-c3ccc(Br)cc3)o2)C(=O)NC2CCS(=O)(=O)C2)cc1 (stereo not given) | inconclusive [activator, single point] | – |
| O=C(Oc1cccc2c(O)cccc12)c1ccccc1 | inconclusive [activator, single point] | – |
| C=C1CCC[C@]2(C)C[C@H]3OC(=O)C(CNCC(OC)OC)[C@H]3CC12 (stereo not given in full) | inconclusive [activator, single point] | – |
| O=C(CCn1c2c(c3ccccc31)CCCC2)NNC(=O)c1ccccc1C(=O)O | inconclusive [activator, single point] | – |

| Compound | Potency | activity, positive = re-replication |
| --- | --- | --- |
| Cn1cccc1C(=O)OCC(=O)Nc1cccc(S(=O)(=O)N2CCOCC2)c1 | inconclusive [activator, full curve, poor fit] | – |
| COc1ccc(C(=O)[C@H]2[C@H]3C(=O)N(c4ccccc4)C(=O)[C@H]3C3C=CC=NN32)cc1 (stereo not given in full) | inactive | – |
| O=C(N/N=C\c1cc(Br)cs1)C1COc2ccccc2O1 (stereo not given) | inconclusive [activator, single point] | – |
| COc1ccc(CCC(=O)NCc2ccccc2OC)cc1 | inactive | – |
| Cc1cccc2cc(C#N)c(NCCCNS(=O)(=O)c3ccc(Cl)cc3)nc12 | inconclusive [activator, single point] | – |
| CC(=O)O[C@@]1(C)C[C@@H](O)[C@]2(O)C=CO[C@@H](O[C@@H]3O[C@H](CO)[C@@H](O)[C@H](O)[C@H]3O)[C@@H]21 | inactive | – |
| Oc1ccccc1C1NN=C(c2ccccc2)S1 (stereo not given) | inconclusive [activator, single point] | – |
| CC(C(=O)NCCc1ccc(Cl)cc1)n1c(=O)c2cccn2c2cccnc21 (stereo not given) | inactive | – |
| Cc1cc(C)cc(C(=O)N2CCCCC2)c1 | inactive | – |
| NS(=O)(=O)c1ccc(NC(=O)CCC(=O)c2ccc(Cl)s2)cc1 | inactive | – |
| O=[N+]([O-])c1ccc(Cl)c(C2Nc3cccc4cccc(c34)N2)c1 | – | inactive: 166% [at 0.0737 µM] |
| CO[C@@H]1[C@@H](OC2OC(C)C(OC3CC(C)(O)C(OC(=O)CC(C)C)C(C)O3)C(N(C)C)C2O)[C@@H](CC=O)C[C@@H](C)C(=O)/C=C\C2O[C@H]2C[C@@H](C)OC(=O)C[C@H]1OC(C)=O (stereo not given in full) | active: 29.9 µM | – |
| O=C1CCCN1CCCNc1ncnc2c1[nH]c1ccc(Cl)cc12 | inactive | – |
| CC(C)N(Cc1ccccc1)C(=O)c1ccc2nsnc2c1 | inconclusive [activator, partial curve, poor fit] | – |
| Cn1c(-c2ccsc2)c(-c2cccs2)c2cc(-c3cccc4[nH]ccc34)ccc21 | inconclusive [activator, partial curve, poor fit] | – |
| Cc1ccc(NC(=S)c2nc3ccccc3[nH]2)c(C)c1 | inconclusive [activator, single point] | – |
| COc1cc(/C=N/NC(=O)c2c(C)nc3ccc(Cl)cn23)cc(OC)c1OC | inconclusive [activator, partial curve] | – |
| O=C(/C=C/c1ccccc1)c1ccc2c(c1)OCCCCO2 | inconclusive [activator, single point] | – |
| CCN(CC(=O)Nc1c(F)cccc1F)C(=O)CCc1nc2cc(S(=O)(=O)N3CCOCC3)ccc2n1C | inactive | – |
| Cc1ccc(-c2nnn(CC(=O)Nc3nnc(C(C)C)s3)n2)cc1 | – | inactive: 1.75% [at 9.22 µM] |
